# Source: the supplement of paper PMC4604168 (melanoma cell lines)
# The list shows a part of the results. Single values are uncertain, as repeats are few or missing.
# Assays:
# Assay in all cases: cell count relative to DMSO control; melanoma cells; higher = more viable cells
# Settings in all cases: library dose: standard library concentration; 72 h
# G361 = tested on: G361
# IPC-298 = tested on: IPC-298
# IST-MEL1 = tested on: IST-MEL1
# LB2518-MEL = tested on: LB2518-MEL
# LOXIMVI = tested on: LOXIMVI
# MEL-HO = tested on: MEL-HO
# MZ2-MEL = tested on: MZ2-MEL
# MeWo = tested on: MeWo
# RPMI7951 = tested on: RPMI7951
# RVH-421 = tested on: RVH-421
# SkMel28 = tested on: SkMel28
# SkMel2 = tested on: SkMel2
# SkMel30 = tested on: SkMel30
# SkMel5 = tested on: SkMel5
# UACC257 = tested on: UACC257
# UACC62 = tested on: UACC62
# WM115 = tested on: WM115
# WM1716 = tested on: WM1716
# WM1745 = tested on: WM1745
# WM3526 = tested on: WM3526
# 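Also: cells treated in 1,536-well plates, then fixed and DAPI-stained, with nuclei counted from automated high-throughput microscope images.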
Compound,cell count (G361) [%],cell count (IPC-298) [%],cell count (IST-MEL1) [%],cell count (LB2518-MEL) [%],cell count (LOXIMVI) [%],cell count (MEL-HO) [%],cell count (MZ2-MEL) [%],cell count (MeWo) [%],cell count (RPMI7951) [%],cell count (RVH-421) [%],cell count (SkMel28) [%],cell count (SkMel2) [%],cell count (SkMel30) [%],cell count (SkMel5) [%],cell count (UACC257) [%],cell count (UACC62) [%],cell count (WM115) [%],cell count (WM1716) [%],cell count (WM1745) [%],cell count (WM3526) [%]
"Nc1cccc2c1CN(C1CCC(=O)NC1=O)C2=O (stereo not given) [lenalidomide] + COC(=O)c1sccc1S(=O)(=O)Nc1ccc(Nc2ccccc2)cc1OC [GSK0660] (first compound 5 µM, partner dose 5 µM)",90.5,102,98.9,116,117,98.8,84.4,89.2,142,85,77.4,91.2,82.4,72.9,83.4,101,101,98.6,113,97.4
"C#Cc1cccc(Nc2ncnc3cc(OCCOC)c(OCCOC)cc23)c1 [erlotinib] + CCN(CC)CCCCNc1ncc2cc(-c3cc(OC)cc(OC)c3)c(NC(=O)NC(C)(C)C)nc2n1 [PD173074] (first compound 4 µM, partner dose 0.5 µM)",77.8,74,93.2,59.5,57.7,78.7,36.7,75,64.8,82.1,75.9,92.3,74.3,69.6,94.5,83.4,83.6,99.4,55.3,81.9
"Cn1c(Nc2ccc(C(F)(F)F)cc2)nc2cc(Oc3ccnc(-c4ncc(C(F)(F)F)[nH]4)c3)ccc21 + CC(C)CCN1c2nc(Nc3cc(F)c(O)c(F)c3)ncc2N(C)C(=O)C1C [BID1870] (first compound 0.4 µM, partner dose 1 µM)",25.4,45.7,80.1,35.7,62.9,52.4,55.9,57,61.5,33.5,26.6,38.9,62,32.4,70.9,64.3,35,65.9,54.8,36.8
"Cn1c(Nc2ccc(C(F)(F)F)cc2)nc2cc(Oc3ccnc(-c4ncc(C(F)(F)F)[nH]4)c3)ccc21 + COc1ccc(-c2ccc3c(N4CCOCC4)nc(N4C[C@@H](C)O[C@@H](C)C4)nc3n2)cc1CO [KU0063794] (first compound 0.4 µM, partner dose 0.1 µM)",14.5,43.8,77.6,32.1,73.5,46.6,45.7,57.3,46,54.3,32.2,48.8,48.9,44.8,74.5,66.5,41.4,65.3,60.7,38.8
"C#Cc1cccc(Nc2ncnc3cc(OCCOC)c(OCCOC)cc23)c1 [erlotinib] + CN(NC(=O)CC(=O)NN(C)C(=S)c1ccccc1)C(=S)c1ccccc1 [STA4783] (first compound 4 µM, partner dose 0.03 µM)",34.1,56.3,30.6,24.5,54.9,67.3,78.4,21.3,48.8,63.5,21.5,61.7,68.8,48,96.5,45.9,19.7,60.3,26.6,64.8
"OCc1c[nH]c2ccccc12 [Indole-3-carbinol] + C#Cc1cccc(Nc2ncnc3cc(OCCOC)c(OCCOC)cc23)c1 [erlotinib] (first compound 4 µM, partner dose 4 µM)",75.2,59.3,91.1,59.9,103,81.9,67.9,70.8,75.9,99.1,72.1,76.5,67.3,46,104,72.9,83.3,92.7,45.5,76.6
"Nc1cccc2c1CN(C1CCC(=O)NC1=O)C2=O (stereo not given) [lenalidomide] + COc1cc2ncnc(Nc3ccc(Oc4ccccc4)cc3)c2cc1OC [SrcI1] (first compound 5 µM, partner dose 10 µM)",63.5,74.8,85.8,102,59,83.3,67.7,81.2,55.1,104,67,82.3,84.3,60.7,89.7,65.8,67.6,69.4,56,57.7
"C#Cc1cccc(Nc2ncnc3cc(OCCOC)c(OCCOC)cc23)c1 [erlotinib] + C[C@@H]1CCN(C(=O)CC#N)C[C@@H]1N(C)c1ncnc2[nH]ccc12 [CP690550] (first compound 4 µM, partner dose 5 µM)",71.4,74.3,83.6,65.1,89,82.1,86.3,73.1,69.1,113,57.8,87,64.8,64.4,97.3,71.6,66.8,88.2,56,87.7
"O=C(CCCCCCC(=O)Nc1ccccc1)NO [vorinostat] + COc1ccc(COc2ccc(Cc3cnc(N)nc3N)cc2OC)cc1 [GW2580] (first compound 0.4 µM, partner dose 5 µM)",83.5,86.9,106,81.3,84.8,96.7,83.7,75.7,81.2,76,65.5,91.3,106,64.8,72.4,85.1,70.5,92.7,79.3,74.5
